# The whole screen tested about 390,000 compounds, of which about 2,200 (0.56%) were called active. This list was built around the results that the source calls inconclusive (neither active nor inactive); the mix of calls is not that of the screen. The call rests on the fitted dose curve; in most records, active means well fitted inhibition curve with a large enough effect; inconclusive means small, poorly fitted or top-dose-only effect; inactive means no such curve, though single readings can be large or run the other way. Where the call is inconclusive, the potency comes from a doubtful curve fit.
# Biological target: Chromobox protein homolog 1 (Homo sapiens) (UniProt P83916)
# Sequence of UniProt P83916 (P83916 whole entry, looked up): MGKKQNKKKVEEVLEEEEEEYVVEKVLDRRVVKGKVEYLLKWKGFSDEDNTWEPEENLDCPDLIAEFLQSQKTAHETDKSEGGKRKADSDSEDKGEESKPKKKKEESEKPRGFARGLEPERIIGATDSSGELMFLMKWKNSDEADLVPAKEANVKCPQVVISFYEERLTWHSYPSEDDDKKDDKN
# Assay: HTS for Inhibitors of HP1-beta Chromodomain Interactions with Methylated Histone Tails; further: nearly all actives have a fitted effect of over 70% in size
# Conditions: AlphaScreen HP1-beta / biotin-H3K9me3 peptide binding; series mostly up to 114 µM; activity change, negative = inhibition: at the top concentration
# In short: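 AlphaScreen: HP1-beta (50 nM) preformed 30 min with biotin-H3(1-18)K9me3 peptide (50 nM) in PBS pH 7.4, 0.01% Tween-20. Compound added for 30 min at RT, then streptavidin donor/nickel chelate acceptor beads (10 ug/mL) for 30 min.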
# Potency means the concentration at half of the fitted maximal effect; tags describe the fitted curve by direction and shape.
Structure (SMILES),Potency,"activity change, negative = inhibition"
CC1Cc2ccccc2N1CC(=O)c1c(N)n(Cc2ccccc2)c(=O)n(C)c1=O (stereo unspecified),"inconclusive: 20 µM [inhibitor, partial curve, poor fit]",–
Cc1c(NS(=O)(=O)c2ccccc2)cc(Cl)c(O)c1C,"inconclusive: 63.1 µM [inhibitor, single point]",–
CCOc1cc(/C=N/NC(=O)CN2CCCCC2)ccc1OCc1ccc(Cl)cc1,–,inactive: 10.9%
CCOC(=O)CC(=O)CSc1nc2c(cc1C#N)CCCCC2,–,inactive: 74.3%
Cc1cc(C)cc(-n2c3nc4ccccc4nc3c3c(=O)n(Cc4ccco4)cnc32)c1,–,inactive: 23%
COc1ccc(OCc2cc(C(=O)N(C)Cc3nccn3C)no2)c2ccccc12,"inconclusive: 56.2 µM [inhibitor, partial curve]",–
Clc1cccc(Sc2ccc(-c3ccccn3)s2)c1,–,inactive: 229%
CCOc1ccc(NC(=S)Nc2ccc3nsnc3c2)cc1,"inconclusive: 14.1 µM [inhibitor, full curve]",–
COc1ccc(N=c2nc(-c3ccc(C)cc3)n(-c3ccccc3)s2)cc1,"inconclusive: 15.8 µM [inhibitor, single point]",–
COc1ccc(N2CC3=C(C2=O)C(c2ccc(O)c(OC)c2)NC(=O)N3C)cc1 (stereo unspecified),–,inactive: 23.9%
CC(OC(=O)c1cc(O)c2ccccc2c1O)C(=O)Nc1ccc(C(N)=O)cc1 (stereo unspecified),"inconclusive: 15.8 µM [inhibitor, full curve, poor fit]",–
Oc1cc2c(cc1O)[C@H]1c3ccc(O)c(O)c3OC[C@@]1(O)C2,"inconclusive: 10 µM [inhibitor, partial curve, poor fit]",–
COC(=O)c1[nH]c2ccc(C)cc2c1NC(=O)CN1CCN(c2ccccc2)CC1,"inconclusive: 35.5 µM [inhibitor, single point]",–
CN(C)c1ccc(NC(=O)CN2CCC(N3CCCCC3)CC2)cc1,"inconclusive: 15.8 µM [inhibitor, single point]",–
CC(C)Oc1ccc(C(=O)NCc2ccco2)cc1,"inconclusive: 25.1 µM [inhibitor, full curve]",–
CN1CCN(S(=O)(=O)c2ccc(N3CCN(c4ccc(O)cc4)CC3)c([N+](=O)[O-])c2)CC1,active: 70.8 µM,–
CCOc1ccc(NC(=O)CN(C)C(=O)c2cc(C)on2)cc1OCC,–,inactive: 16.6%
O=C(O)/C=C/C(=O)Nc1ccc(N2CCOCC2)nc1N1CCOCC1,"inconclusive: 70.8 µM [inhibitor, partial curve]",–
CN(C)CCN(C(=O)c1ccc(S(=O)(=O)N(C)c2ccccc2)cc1)c1nc2cc3c(cc2s1)OCCO3,–,inactive: -10.6%
CCN(CC)c1ccc(NC(=O)COC(=O)C23CCC(=O)N2c2ccccc2S3)cc1 (stereo unspecified),"inconclusive: 44.7 µM [inhibitor, partial curve, poor fit]",–
COC(=O)c1c(NC(=O)CN2CCN(c3ccccc3Cl)CC2)sc(C)c1C,"inconclusive: 56.2 µM [inhibitor, partial curve, poor fit]",–
CCOc1cc(/C=N\n2nnnc2N)ccc1O,"inconclusive: 79.4 µM [inhibitor, single point]",–
CCOc1ccccc1CN1CCC(N2CCOCC2)CC1,"inconclusive: 15.8 µM [inhibitor, full curve, poor fit]",–
COc1cccc2cc(C(=O)N3CCN(C45CC6CC(CC(C6)C4)C5)CC3)c(=O)oc12,–,inactive: -10.7%

Structure (SMILES),Potency,"activity change, negative = inhibition"
CCOc1ccc(C(=S)NC2CCCCC2)cc1OCC,"inconclusive: 7.94 µM [inhibitor, full curve]",–
Cc1ccc(NC(=O)c2nc[nH]c2C(=O)N(C)Cc2ccccc2)cc1,–,inactive: 41.7%
O=[N+]([O-])c1ccccc1NCc1c(O)ccc2ccccc12,"inconclusive: 17.8 µM [inhibitor, full curve]",–
O=C(Cn1[nH]c(=O)c2ccccc2c1=O)OCC(=O)c1ccccc1,–,inactive: 14.7%
CCN(CC(=O)Nc1ccc(OC)cc1)C(=O)c1ccc2c(c1)NC(=O)C(C)S2 (stereo unspecified),–,inactive: 29.2%
Nc1ccc(Oc2cc(N)cc(Oc3ccccc3)c2)cc1,"inconclusive: 44.7 µM [inhibitor, partial curve]",–
O=[N+]([O-])c1cccc(N/N=C/c2cccc3ccccc23)c1,"inconclusive: 70.8 µM [inhibitor, partial curve]",–
CNCCCOc1cccc(OC(C)C)c1,"inconclusive: 63.1 µM [inhibitor, single point]",–
CC[N+](C)(C)c1cccc(O)c1,–,inactive: 35.6%
CCN(CC)c1nc(-c2cccc(OC)c2O)nc2ccccc12,"inconclusive: 5.01 µM [inhibitor, full curve, poor fit]",–
O=C(NC12CC3CC(CC(C3)C1)C2)c1ccc(N2CCNCC2)c([N+](=O)[O-])c1,"inconclusive: 79.4 µM [inhibitor, partial curve]",–
Cc1csc2nc(COC(=O)c3cccc(NC(=O)COc4ccc(Cl)cc4)c3)cc(=O)n12,–,inactive: 32.8%
COc1ccc(CC(=O)Oc2ccc(C)cc2Br)cc1OC,"inconclusive: 89.1 µM [inhibitor, single point]",–
O=C(O)C1Oc2cc3ccccc3cc2O1,"inconclusive: 70.8 µM [inhibitor, partial curve, poor fit]",–
O=C(O)c1cccc(NS(=O)(=O)c2ccc(Oc3ccc(S(=O)(=O)Nc4cccc(C(=O)O)c4)cc3)cc2)c1,–,inactive: 24.6%
CCCCc1ccc(NC(=S)Nc2ccc(Nc3ccc(OC)cc3)cc2)cc1,"inconclusive: 7.94 µM [inhibitor, full curve, poor fit]",–
Cc1ccc(Nc2nc(N)c([N+](=O)[O-])c(N3CCCC(C)C3)n2)cc1C (stereo unspecified),"inconclusive: 50.1 µM [inhibitor, partial curve]",–
C/C(=N\Nc1ccc(S(=O)(=O)Nc2ccc(Cl)cc2)cc1[N+](=O)[O-])c1ccc(N2CCOCC2)cc1,"inconclusive: 15.8 µM [inhibitor, full curve]",–
COc1ccc(OC)c(NC(=O)Nc2ccc(O)c3ccccc23)c1,"inconclusive: 50.1 µM [inhibitor, partial curve, poor fit]",–
Cc1cc(C(=O)COC(=O)c2cc(O)c3ccccc3c2O)c(C)n1CC1CCCO1 (stereo unspecified),active: 28.2 µM,–
CCOC(=O)CC(c1ccc([N+](=O)[O-])cc1)n1c(C)ccc1C (stereo unspecified),"inconclusive: 39.8 µM [inhibitor, partial curve, poor fit]",–
Cc1c(C(=O)NCC(c2ccc(Cl)cc2)N2CCOCC2)oc2ccccc12 (stereo unspecified),–,inactive: 29.6%
C/C(=N\NS(=O)(=O)c1ccc([N+](=O)[O-])cc1)c1ccc(NC(=O)c2ccco2)cc1,–,inactive: 12.3%
CCOC(=O)c1c(C)[nH]c(C2=NNC(=NC3CC3)SC2)c1C,"inconclusive: 20 µM [inhibitor, full curve]",–

Structure (SMILES),Potency,"activity change, negative = inhibition"
Cc1ccc(-n2c(=O)c3cccnc3n2CC(=O)Nc2ccc(Br)cc2)cc1C,–,inactive: 58.1%
CCOC(=O)/C(C#N)=C/c1cn(CCC(=O)O)nc1-c1ccccc1,"inconclusive: 39.8 µM [inhibitor, single point]",–
Cc1cccc(-c2nc(C#N)c(N3CCCCCC3)o2)c1,"inconclusive: 31.6 µM [inhibitor, single point]",–
COc1ccc(C)cc1NC(=O)CCS(=O)(=O)c1cc2c3c(c1)CCN3C(=O)CC2,active: 70.8 µM,–
COc1ccc(-c2cc3onc(-c4c(Cl)cccc4Cl)c3c(=O)n2C)cc1,–,inactive: 22%
NC1=C(Br)C(=O)c2ncccc2C1=O,"inconclusive: 70.8 µM [inhibitor, partial curve]",–
Cc1cc(=O)[nH]c(SC(C)C(=O)Nc2cccc3ccccc23)n1 (stereo unspecified),–,inactive: 7.1%
O=C(O)CC1=C(O)C(=O)N(c2ccccc2)C1c1ccc(Br)cc1 (stereo unspecified),–,inactive: 29.6%
CC(NCC(O)COc1ccccc1)C1COc2ccccc2O1 (stereo unspecified),–,inactive: 23.2%
O=C(Nc1ccc(S(=O)(=O)NCC2CCCO2)cc1)c1ccc(Cl)cc1[N+](=O)[O-] (stereo unspecified),–,inactive: 21%
O=S(=O)(c1ccc(Cl)cc1)c1nc(-c2ccco2)oc1N1CCCCC1,"inconclusive: 39.8 µM [inhibitor, partial curve]",–
CCOc1ccc(NCc2cc3c(C(C)(C)C)nn(-c4ccccc4)c3[nH]c2=O)cc1,"inconclusive: 50.1 µM [inhibitor, partial curve]",–
CCOC(=O)c1sc(=S)n(-c2cccc(OC)c2)c1N,"inconclusive: 15.8 µM [inhibitor, full curve, poor fit]",–
Cc1ccccc1C(=O)NNS(=O)(=O)c1cccc([N+](=O)[O-])c1,–,inactive: 41.1%
CC1(C)CC(=O)C(C(C2=C(O)CC(C)(C)CC2=O)c2ccc(Cl)c([N+](=O)[O-])c2)C(=O)C1 (stereo unspecified),–,inactive: 23.8%
O=C(O)c1cc(-c2ccco2)nn1-c1ccc(Cl)cc1,"inconclusive: 79.4 µM [inhibitor, single point]",–
S=c1nc(-c2ccccc2Cl)[nH][nH]1,"inconclusive: 79.4 µM [inhibitor, single point]",–
O=C(NC(=S)Nc1ccccc1N1CCOCC1)c1ccc(-c2cc(Cl)ccc2Cl)o1,–,inactive: -1.54%
COc1ccc(Nc2cc(C(=O)NCCCN3CCN(c4ccc(OC)cc4)CC3)c3ccccc3n2)cc1,"inconclusive: 15.8 µM [inhibitor, full curve]",–
Cc1ccc(N2C(=O)C3C(C2=O)N2CCCN2C3c2ccccc2)cc1C (stereo unspecified),"inconclusive: 89.1 µM [inhibitor, partial curve, poor fit]",–
CCOC(=O)c1c(NC(=O)CSc2nc3ccccc3o2)sc(C)c1C,–,inactive: 47.6%
Cc1cc(C)n(CCc2nc3c4ccccc4nc(N4CCN(c5ccccc5)CC4)n3n2)n1,–,inactive: 1.52%
Cc1cccc(N=Nc2cn[nH]c2-c2ccco2)c1,"inconclusive: 25.1 µM [inhibitor, full curve]",–

# From PubChem BioAssay AID540317 (National Center for Advancing Translational Sciences (NCATS), 2011)
